Measured values from PubChem BioAssay AID1476 (National Center for Advancing Translational Sciences (NCATS), 2009).
About 4,500 (2.2%) of roughly 200,000 compounds were called active. Inconclusive results, whose numbers are uncertain, are shown with a selection of clear calls. Calls follow the shape of the dose curve; as a rule, active = well fitted inhibition curve with a large enough effect; inconclusive = small, poorly fitted or top-dose-only effect, or effect the other way; inactive = flat fitted curve, though single readings scatter. Potencies of inconclusive entries are doubtful fits and often do not repeat.

molecular target: Cruzipain (Trypanosoma cruzi) (UniProt P25779); assay: qHTS Assay for Promiscuous and Specific Inhibitors of Cruzain (without detergent); conditions: purified cruzain, Z-FR-AMC fluorescence, no detergent; also: nearly all actives have a fitted effect of over 40% in size;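 as to max response, negative = inhibition: plate controls were enzyme without inhibitor for no effect and buffer without enzyme for full effect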
Sequence of UniProt P25779 (P25779 whole entry, looked up): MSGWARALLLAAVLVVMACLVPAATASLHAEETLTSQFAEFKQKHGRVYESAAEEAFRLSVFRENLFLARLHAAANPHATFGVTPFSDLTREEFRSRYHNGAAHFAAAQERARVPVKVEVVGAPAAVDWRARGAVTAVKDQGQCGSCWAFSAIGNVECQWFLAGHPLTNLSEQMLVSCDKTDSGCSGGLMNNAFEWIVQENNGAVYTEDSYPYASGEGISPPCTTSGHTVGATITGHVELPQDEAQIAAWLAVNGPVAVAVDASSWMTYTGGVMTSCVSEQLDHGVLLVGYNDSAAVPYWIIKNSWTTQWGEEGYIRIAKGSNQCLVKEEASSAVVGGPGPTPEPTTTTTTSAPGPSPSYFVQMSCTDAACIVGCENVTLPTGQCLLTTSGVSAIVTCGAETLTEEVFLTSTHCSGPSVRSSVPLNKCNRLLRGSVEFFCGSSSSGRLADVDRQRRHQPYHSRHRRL
In short: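 Detergent-free condition (0.00005% Triton X-100) in acetate buffer pH 5.5 with DTT. 1.5 nM enzyme and compound were pre-mixed 15 min, then 2 uM Z-FR-AMC substrate added; reaction progress from fluorescence change between first and third reads (60 s).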
Potency is read from the fitted curve at half-maximal effect; tags tell the direction and shape of the fitted curve.

| Compound | Potency | max response, negative = inhibition |
| --- | --- | --- |
| CCOC(=O)c1ccc(N2CCN(c3ccc(F)cc3)CC2)c(NC(=O)Nc2cccc(OC)c2)c1 | inconclusive: 39.8 µM [inhibitor, single point] |  |
| Cc1ccc(CNc2ncccc2-c2nc3cc(Cl)ccc3o2)cc1 | active: 10 µM |  |
| O=C(c1ccc(S(=O)(=O)N2CCOCC2)cc1)N1CCN(c2cccc(Cl)c2)CC1 | inconclusive: 31.6 µM [activator, partial curve] |  |
| CCSc1nnc(-c2cccc(S(=O)(=O)N(C)C)c2)n1-c1cc(OC)ccc1OC | inconclusive: 39.8 µM [activator, single point] |  |
| CCOC(=O)c1ccc(N2C(=O)CC(N3CCC(C#N)(c4ccccc4)CC3)C2=O)cc1 (stereo not drawn) | inconclusive: 25.1 µM [activator, single point] |  |
| CCCNC(=O)C(=O)NCC(c1ccc2c(c1)OCO2)N1CCOCC1 (stereo not drawn) |  | inactive: -6.9% |
| COc1ccc(OCc2ccc(-c3nc(C#N)c(N4CCC(C)CC4)o3)o2)cc1 | inconclusive: 39.8 µM [inhibitor, single point] |  |
| CCCC(=O)NC(=S)Nc1nc(-c2ccc(OC)cc2)cs1 | inconclusive: 31.6 µM [inhibitor, single point] |  |
| O=C(Nc1cnccn1)C1c2ccccc2Oc2ccccc21 | inconclusive: 31.6 µM [inhibitor, single point] |  |
| CCCCCCCCCCCCCCCC(=O)OCC(O)C1OC(=O)C(O)=C1O (stereo not drawn) | inconclusive: 6.31 µM [activator, full curve, poor fit] |  |
| CCCCC/C=C\C/C=C\C/C=C\CCCCCCC(=O)NCCc1ccc(O)c(O)c1 |  | inactive: -1.63% |
| O=C(CSc1nc2ccccc2o1)N1CCN(S(=O)(=O)c2ccc3ccccc3c2)CC1 | inconclusive: 39.8 µM [inhibitor, single point] |  |
| CCCCCCCCCCCCCCCC(=O)OC(CO)CO | inconclusive: 6.31 µM [activator, single point] |  |
| Cc1ccc(-c2cc(C(=O)N/N=C/C=C/c3ccccc3)n[nH]2)s1 | inconclusive: 31.6 µM [inhibitor, single point] |  |
| S=C(NCc1ccc2[nH]c3c(c2c1)CCCC3)Nc1ccccc1Cl | inconclusive: 31.6 µM [inhibitor, single point] |  |
| CCN(CC)C(=O)C1CCCN(c2ccc([N+](=O)[O-])cc2/C=N/NC(=O)c2cccc(Br)c2)C1 (stereo not drawn) | inconclusive: 3.98 µM [activator, single point] |  |
| COC(=O)C1(CC(C)C)C=C2C(=C(c3ccccc3)C(=O)C2C)CN1 (stereo not drawn) |  | inactive: -1.76% |
| Cc1ccc(S(=O)(=O)N(C(=O)c2ccncc2)c2ccc(OC(=O)c3ccncc3)cc2)cc1 | inconclusive: 39.8 µM [activator, single point] |  |
